# Data as given in the supplement of paper PMC3334620.
# Whole data set: some 33,000 sequences, median “E-score (-0.5 to 0.5)” near -0.017, cut for the highest 2% near 0.3. The list shows a part of the results.
# Target: T1, Sut1 (UniProt P53032)
# T1 sequence: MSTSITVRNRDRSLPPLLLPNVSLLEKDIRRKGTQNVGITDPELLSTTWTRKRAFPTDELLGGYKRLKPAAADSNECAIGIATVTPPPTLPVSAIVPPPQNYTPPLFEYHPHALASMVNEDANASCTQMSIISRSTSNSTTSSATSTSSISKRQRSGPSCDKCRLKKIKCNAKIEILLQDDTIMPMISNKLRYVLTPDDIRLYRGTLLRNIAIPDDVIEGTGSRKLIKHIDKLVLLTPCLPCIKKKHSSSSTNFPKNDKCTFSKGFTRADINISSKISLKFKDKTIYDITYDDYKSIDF
# Test: PBM E-score (8-mer binding enrichment) (E-score (-0.5 to 0.5)); higher = stronger / more preferred TF binding; most listed sequences are background and not binding sites
# Conditions: protein concentration: 200 nM; construct: GST-full length
# Protocol: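 Universal 'all 10-mer' protein binding microarrays (Agilent AMADID 015681) probed with GST-tagged S. cerevisiae TFs (full-length or DBD) made by in vitro transcription/translation (PURExpress), about 100-200 nM. Bound TF was detected with fluorescent anti-GST. Each ungapped 8-mer (which stands for itself and its reverse complement) is scored by the PBM enrichment score (E-score), a modified Wilcoxon-Mann-Whitney statistic from -0.5 to +0.5, computed with the Universal PBM Analysis Suite. Scale: above 0.35 generally sequence-specific binding.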
row,Sequence,PBM E-score
1,ACGCATAT,0.0168
2,CAATTATG,0.0932
3,ACTGGCAT,-0.156
4,TATTACGA,0.223
5,CCTCGTTC,-0.159
6,ATCAAACA,0.0922
7,AATCCCAA,0.11
8,ATATTGAT,0.258
9,TTTCGAAA,0.211
10,AGGTACTG,-0.0919
11,GGGACCAC,-0.0986
12,AGCCGATG,-0.0167
13,AAATTAAC,0.236
14,ACGGAGAT,0.435
15,ATTAGACA,0.134
16,AACTATTA,0.177
17,CTGGTCCC,-0.413
18,CCAACGAG,-0.267
19,ACTTAATG,0.16
20,GTCGCTAA,0.0131
21,ATATTATG,0.362
22,ATATGCAA,0.00072
23,CATCCTCG,-0.188
24,AGCGTTCC,-0.0982
25,CTATTGAG,-0.0153

row,Sequence,PBM E-score
1,GATTAATC,0.177
2,CTACTCTA,0.0277
3,ATTTGGTA,0.142
4,GATCTGAC,-0.136
5,CGATTAAA,0.237
6,CCCGGGTC,-0.0481
7,AGCGCGGC,-0.252
8,CGGGTAAA,0.165
9,AAGAAATG,0.144
10,CCTCACCA,-0.122
11,AGGGCTCG,-0.223
12,ACCGAGGG,-0.284
13,ATTTTTGA,0.235
14,AAGTGGTA,-0.0726
15,ACCACGGG,-0.157
16,AATTTTAC,0.27
17,CCAAAAAG,0.134
18,GTGTTATA,0.173
19,CCCAAGGC,-0.0767
20,GGAGGCTA,-0.266
21,GTTGGGTA,-0.0741
22,ATAATCGC,0.0269
23,CCCGCCGA,-0.0462
24,ACATTAAG,0.239
25,ACCGGTTA,0.0761

row,Sequence,PBM E-score
1,CATAACCC,-0.0293
2,AGAAACAA,0.185
3,GAATTGTA,0.128
4,CTTGCAAA,0.123
5,CAGATGCA,-0.275
6,AACCACGA,-0.0755
7,GCTTCGGA,0.324
8,CTGCAGAA,-0.0376
9,CCGTTCGA,0.0217
10,CGCGGCTC,0.0309
11,CAAGTTCA,0.0723
12,GATTATGA,0.164
13,CCTTAAAG,0.127
14,CCGTGGCG,-0.103
15,ATACAGAA,0.198
16,CATGGCGG,-0.183
17,CATTTAGG,-0.00704
18,AGCTGGTG,0.054
19,ACGCCGTA,0.0127
20,CCAAATAC,-0.0892
21,ACAACACT,0.2
22,CTTGCAGA,-0.222
23,CTCGGAAA,0.19
24,GGATGTTA,-0.00768
25,GTCGCGGA,0.206

row,Sequence,PBM E-score
1,CAAGCATA,-0.0649
2,CTATAATA,0.181
3,AGGGGTAT,-0.217
4,GCATAGGC,-0.284
5,CACATCCA,-0.084
6,AACATAGC,0.0491
7,ACTAAATA,0.262
8,CCAGCGGA,-0.127
9,CGATAGCG,0.0961
10,ACGCATGC,0.0987
11,CCCTCTTA,0.0206
12,CAACGTAC,-0.102
13,AAGGCTTG,-0.154
14,GTTATCTA,0.147
15,CGACATCG,-0.0698
16,ACAGCCCT,-0.198
17,CTCTCACC,-0.175
18,GACCAGCA,-0.137
19,AACACCGT,-0.093
20,AGGGTTCG,-0.00263
21,TCCTTGAA,-0.0478
22,CCAGGTCC,-0.0512
23,ACGGATAT,0.202
24,TATTGACA,0.028
25,AGCGCGAA,0.0509

row,Sequence,PBM E-score
1,CTGCGGAA,-0.0948
2,GATATTCA,-0.00148
3,GCCCCCCC,-0.421
4,AATTAGCT,0.0894
5,CGTGTACA,0.0551
6,CACTTTAA,0.157
7,ATACCACG,0.123
8,AGATTCGC,0.00777
9,ATGGCGTG,-0.0421
10,CTAATTTA,0.175
11,CCTAGACG,-0.136
12,CACTGCAG,-0.0874
13,GAAAGCGC,-0.0413
14,GAACCTTC,0.0137
15,ACCAAAGT,0.0979
16,ACAGCTGG,-0.182
17,TTCCTCAA,0.0392
18,AACCAGTG,0.0203
19,CGAAGCAG,-0.0992
20,GTAAAAGA,0.0474
21,TGGTGGAA,-0.0809
22,AGGAGCCA,-0.183
23,AACACTCA,0.0329
24,ACAGGCCG,-0.0708
25,GAGTACTC,0.107

row,Sequence,PBM E-score
1,GCAGTGTA,-0.179
2,AGTCTCCG,0.316
3,GAAAAATA,0.306
4,AAGGACAT,-0.0931
5,GCTGCCAC,-0.123
6,AGATACTC,0.0915
7,ACTGACGA,-0.171
8,TAAGTTAA,0.263
9,ACATCGCG,-0.146
10,CCTGCCGC,-0.199
11,TCGGTAAA,0.201
12,GATTGTGC,-0.0611
13,ACCAGCTC,0.0669
14,CGTCAACG,0.0766
15,CCTGGATA,-0.26
16,AAAATCCT,0.0861
17,ATGCCCGG,-0.0535
18,ACCTTTTA,0.0771
19,ATCCTTTG,0.0101
20,CCGCCGCG,0.109
21,CACTTTTC,0.138
22,GTATGCAC,-0.186
23,GATCGGCC,-0.178
24,AAGCAGAT,0.0364
25,CGTGTCTC,-0.24

row,Sequence,PBM E-score
1,ACGATACC,0.117
2,ATGTCACC,-0.0134
3,CGTACACA,-0.035
4,TGCGATAA,0.208
5,ACTAGGCG,0.027
6,CGAATCGA,0.173
7,TGCAAACA,-0.246
8,ATCCCGCG,0.132
9,CGTTGCTC,-0.0752
10,GTTGTAGA,-0.0458
11,CGAAAAGA,0.108
12,ATGTAGAA,0.117
13,CACAGTTA,0.0177
14,CAATCAAG,0.0191
15,AAATCGCC,0.0933
16,ATGAGTTG,0.0311
17,CTCGTGGA,-0.0276
18,GAGCGTGA,-0.129
19,ATAAGGCA,-0.0336
20,CGTACGCC,-0.116
21,GGGAGCTA,-0.176
22,GAATGTCC,0.282
